By IC50 is meant the dose at which the fit gives 50% viability; a limit (>, <) means that the fit lies beyond the doses tested. AUC is the area under the same curve over the 256-fold range up to the top dose, as a fraction; values near 1 show little effect. For part of these data: A top dose marked as inferred comes from the curve model; the source does not state it.
What was measured:
Test in all cases: Viability of human cancer cell lines after 72 h of drug (GDSC screen)
XL-880 = compound: COc1cc2c(Oc3ccc(NC(=O)C4(C(=O)Nc5ccc(F)cc5)CC4)cc3F)ccnc2cc1OCCCN1CCOCC1 [XL-880]; conditions: top dose 5.12 µM; top dose inferred
Procedure: (§1)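 Human cancer cell lines in 384-well plates, medium with 10% serum, drug for 72 h over a 256-fold dose range (nine 2-fold or five 4-fold steps up to the top dose). Adherent lines were fixed and stained with the nucleic acid dye Syto60, suspension lines read with resazurin; signal relative to control wells, capped at 0 and 100%. One two-parameter sigmoid per drug and line, fitted in a mixed model over all curves with the slope shared within a line.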

CI-1040 = compound: O=C(NOCC1CC1)c1ccc(F)c(F)c1Nc1ccc(I)cc1Cl [CI-1040]; conditions: top dose 10 µM; top dose inferred
Procedure: as §1

Tubastatin A = compound: CN1CCc2c(c3ccccc3n2Cc2ccc(C(=O)NO)cc2)C1 [Tubastatin A]; conditions: top dose 20 µM
Procedure: as §1

IPA-3 = compound: Oc1ccc2ccccc2c1SSc1c(O)ccc2ccccc12 [IPA-3]; conditions: top dose 32 µM; top dose inferred
Procedure: as §1

Temozolomide = compound: Cn1nnc2c(C(N)=O)ncn2c1=O [Temozolomide]; conditions: top dose 30 µM
Procedure: as §1

Cell Line: JHU-011 (head and neck, adherent)
- AUC (XL-880): 0.562
- IC50 (XL-880): 0.471 µM
- AUC (CI-1040): 0.555
- IC50 (CI-1040): 0.879 µM
- AUC (Tubastatin A): 0.971
- IC50 (Tubastatin A): > 20 µM
- AUC (IPA-3): 0.824
- IC50 (IPA-3): 18.7 µM

Cell Line: GMS-10 (glioma, adherent)
- AUC (XL-880): 0.778
- IC50 (XL-880): 2.06 µM
- AUC (CI-1040): 0.897
- IC50 (CI-1040): > 10 µM
- AUC (Tubastatin A): 0.983
- IC50 (Tubastatin A): > 20 µM
- AUC (IPA-3): 0.881
- IC50 (IPA-3): > 32 µM

Cell Line: RH-18 (rhabdomyosarcoma, adherent)
- AUC (Temozolomide): 0.979
- IC50 (Temozolomide): > 30 µM
- AUC (CI-1040): 0.9
- IC50 (CI-1040): > 10 µM

Cell Line: JEKO-1 (B-cell lymphoma, suspension)
- AUC (Temozolomide): 0.981
- IC50 (Temozolomide): > 30 µM
- AUC (CI-1040): 0.913
- IC50 (CI-1040): > 10 µM

Cell Line: NCI-H1341 (small cell lung carcinoma, suspension)
- AUC (Temozolomide): 0.987
- IC50 (Temozolomide): > 30 µM
- AUC (CI-1040): 0.958
- IC50 (CI-1040): > 10 µM

Cell Line: NCI-H835 (lung carcinoid, suspension)
- AUC (Temozolomide): 0.981
- IC50 (Temozolomide): > 30 µM
- AUC (CI-1040): 0.991
- IC50 (CI-1040): > 10 µM

Cell Line: MDA-MB-231 (breast, adherent)
- AUC (Temozolomide): 0.943
- IC50 (Temozolomide): > 30 µM
- AUC (CI-1040): 0.773
- IC50 (CI-1040): 4.13 µM
- AUC (Tubastatin A): 0.978
- IC50 (Tubastatin A): > 20 µM
- AUC (IPA-3): 0.949
- IC50 (IPA-3): > 32 µM

Cell Line: CL-40 (large intestine, adherent)
- AUC (Temozolomide): 0.966
- IC50 (Temozolomide): > 30 µM
- AUC (CI-1040): 0.833
- IC50 (CI-1040): > 10 µM

Cell Line: KMRC-1 (kidney, adherent)
- AUC (XL-880): 0.734
- IC50 (XL-880): 1.56 µM
- AUC (CI-1040): 0.893
- IC50 (CI-1040): > 10 µM
- AUC (Tubastatin A): 0.97
- IC50 (Tubastatin A): > 20 µM
- AUC (IPA-3): 0.862
- IC50 (IPA-3): 30 µM

Cell Line: MOLT-16 (T-cell lymphoblastic leukaemia, suspension)
- AUC (Temozolomide): 0.979
- IC50 (Temozolomide): > 30 µM
- AUC (CI-1040): 0.837
- IC50 (CI-1040): 4.86 µM

Cell Line: MCF7 (breast, adherent)
- AUC (Temozolomide): 0.971
- IC50 (Temozolomide): > 30 µM
- AUC (CI-1040): 0.945
- IC50 (CI-1040): > 10 µM
- AUC (Tubastatin A): 0.986
- IC50 (Tubastatin A): > 20 µM
- AUC (IPA-3): 0.579
- IC50 (IPA-3): 3.33 µM

Cell Line: NCI-H1734 (lung adenocarcinoma, adherent)
- AUC (XL-880): 0.771
- IC50 (XL-880): 2.16 µM
- AUC (CI-1040): 0.872
- IC50 (CI-1040): > 10 µM
- AUC (Tubastatin A): 0.974
- IC50 (Tubastatin A): > 20 µM
- AUC (IPA-3): 0.81
- IC50 (IPA-3): 18.9 µM

Cell Line: CRO-AP2 (B-cell lymphoma, suspension)
- AUC (Temozolomide): 0.836
- IC50 (Temozolomide): 16.3 µM
- AUC (CI-1040): 0.942
- IC50 (CI-1040): > 10 µM

Cell Line: MG-63 (osteosarcoma, adherent)
- AUC (XL-880): 0.984
- IC50 (XL-880): > 5.12 µM
- AUC (CI-1040): 0.927
- IC50 (CI-1040): > 10 µM
- AUC (Tubastatin A): 0.983
- IC50 (Tubastatin A): > 20 µM
- AUC (IPA-3): 0.67
- IC50 (IPA-3): 6.48 µM

Cell Line: KNS-62 (lung squamous cell carcinoma, adherent)
- AUC (Temozolomide): 0.91
- IC50 (Temozolomide): > 30 µM
- AUC (CI-1040): 0.678
- IC50 (CI-1040): 2.47 µM

Cell Line: DAN-G (pancreas, adherent)
- AUC (XL-880): 0.72
- IC50 (XL-880): 1.22 µM
- AUC (CI-1040): 0.892
- IC50 (CI-1040): 9.18 µM
- AUC (Tubastatin A): 0.99
- IC50 (Tubastatin A): > 20 µM
- AUC (IPA-3): 0.984
- IC50 (IPA-3): > 32 µM

Cell Line: GAMG (glioma, adherent)
- AUC (Temozolomide): 0.983
- IC50 (Temozolomide): > 30 µM
- AUC (XL-880): 0.527
- IC50 (XL-880): 0.38 µM
- AUC (Tubastatin A): 0.944
- IC50 (Tubastatin A): > 20 µM
- AUC (IPA-3): 0.699
- IC50 (IPA-3): 7.49 µM

Cell Line: SW900 (lung squamous cell carcinoma, adherent)
- AUC (Temozolomide): 0.971
- IC50 (Temozolomide): > 30 µM
- AUC (XL-880): 0.753
- IC50 (XL-880): 1.96 µM
- AUC (Tubastatin A): 0.959
- IC50 (Tubastatin A): > 20 µM
- AUC (IPA-3): 0.854
- IC50 (IPA-3): > 32 µM

Cell Line: SW837 (large intestine, adherent)
- AUC (Temozolomide): 0.977
- IC50 (Temozolomide): > 30 µM
- AUC (XL-880): 0.655
- IC50 (XL-880): 0.991 µM
- AUC (Tubastatin A): 0.965
- IC50 (Tubastatin A): > 20 µM
- AUC (IPA-3): 0.729
- IC50 (IPA-3): 11.3 µM

Cell Line: PA-1 (ovary, adherent)
- AUC (XL-880): 0.418
- IC50 (XL-880): 0.201 µM
- AUC (CI-1040): 0.891
- IC50 (CI-1040): 7.2 µM
- AUC (Tubastatin A): 0.7
- IC50 (Tubastatin A): 3.95 µM
- AUC (IPA-3): 0.757
- IC50 (IPA-3): 8.93 µM

Cell Line: RT-112 (bladder, adherent)
- AUC (Temozolomide): 0.983
- IC50 (Temozolomide): > 30 µM
- AUC (XL-880): 0.477
- IC50 (XL-880): 0.275 µM
- AUC (Tubastatin A): 0.92
- IC50 (Tubastatin A): > 20 µM
- AUC (IPA-3): 0.784
- IC50 (IPA-3): 14.7 µM

Cell Line: U251 (glioma, adherent)
- AUC (XL-880): 0.564
- IC50 (XL-880): 0.475 µM
- AUC (CI-1040): 0.873
- IC50 (CI-1040): 8.86 µM
- AUC (Tubastatin A): 0.874
- IC50 (Tubastatin A): 17.9 µM
- AUC (IPA-3): 0.987
- IC50 (IPA-3): > 32 µM

Cell Line: A204 (rhabdomyosarcoma, adherent)
- AUC (Temozolomide): 0.975
- IC50 (Temozolomide): > 30 µM
- AUC (XL-880): 0.367
- IC50 (XL-880): 0.123 µM
- AUC (Tubastatin A): 0.887
- IC50 (Tubastatin A): > 20 µM
- AUC (IPA-3): 0.974
- IC50 (IPA-3): > 32 µM

Cell Line: HSC-3 (head and neck, adherent)
- AUC (Temozolomide): 0.957
- IC50 (Temozolomide): > 30 µM
- AUC (XL-880): 0.754
- IC50 (XL-880): 1.5 µM
- AUC (Tubastatin A): 0.99
- IC50 (Tubastatin A): > 20 µM
- AUC (IPA-3): 0.767
- IC50 (IPA-3): 10.3 µM

Cell Line: SW1463 (large intestine, adherent)
- AUC (Temozolomide): 0.975
- IC50 (Temozolomide): > 30 µM
- AUC (XL-880): 0.895
- IC50 (XL-880): > 5.12 µM
- AUC (Tubastatin A): 0.971
- IC50 (Tubastatin A): > 20 µM
- AUC (IPA-3): 0.976
- IC50 (IPA-3): > 32 µM

Cell Line: MOLM-16 (acute myeloid leukaemia, suspension)
- AUC (Temozolomide): 0.97
- IC50 (Temozolomide): > 30 µM
- AUC (CI-1040): 0.769
- IC50 (CI-1040): 3.33 µM

Cell Line: SW1088 (glioma, adherent)
- AUC (Temozolomide): 0.948
- IC50 (Temozolomide): > 30 µM
- AUC (XL-880): 0.607
- IC50 (XL-880): 0.687 µM
- AUC (Tubastatin A): 0.98
- IC50 (Tubastatin A): > 20 µM
- AUC (IPA-3): 0.853
- IC50 (IPA-3): > 32 µM

Cell Line: MM1S (myeloma, suspension)
- AUC (CI-1040): 0.79
- IC50 (CI-1040): 4.2 µM

Cell Line: HTC-C3 (thyroid, adherent)
- AUC (Temozolomide): 0.981
- IC50 (Temozolomide): > 30 µM
- AUC (XL-880): 0.788
- IC50 (XL-880): 2.54 µM
- AUC (Tubastatin A): 0.925
- IC50 (Tubastatin A): > 20 µM
- AUC (IPA-3): 0.854
- IC50 (IPA-3): 30.3 µM

Cell Line: 786-0 (kidney, adherent)
- AUC (Temozolomide): 0.955
- IC50 (Temozolomide): > 30 µM
- AUC (XL-880): 0.559
- IC50 (XL-880): 0.459 µM
- AUC (Tubastatin A): 0.959
- IC50 (Tubastatin A): > 20 µM
- AUC (IPA-3): 0.556
- IC50 (IPA-3): 2.81 µM

Cell Line: LCLC-103H (large cell lung carcinoma, adherent)
- AUC (Temozolomide): 0.99
- IC50 (Temozolomide): > 30 µM
- AUC (XL-880): 0.704
- IC50 (XL-880): 1.13 µM
- AUC (Tubastatin A): 0.976
- IC50 (Tubastatin A): > 20 µM
- AUC (IPA-3): 0.791
- IC50 (IPA-3): 12.9 µM

Cell Line: CML-T1 (chronic myeloid leukaemia, suspension)
- AUC (Temozolomide): 0.978
- IC50 (Temozolomide): > 30 µM
- AUC (CI-1040): 0.855
- IC50 (CI-1040): 5.94 µM

Cell Line: LU-99A (large cell lung carcinoma, adherent)
- AUC (Temozolomide): 0.968
- IC50 (Temozolomide): > 30 µM
- AUC (XL-880): 0.65
- IC50 (XL-880): 0.83 µM
- AUC (Tubastatin A): 0.92
- IC50 (Tubastatin A): > 20 µM
- AUC (IPA-3): 0.96
- IC50 (IPA-3): > 32 µM

Cell Line: RCH-ACV (B-cell leukaemia, suspension)
- AUC (Temozolomide): 0.976
- IC50 (Temozolomide): > 30 µM
- AUC (CI-1040): 0.93
- IC50 (CI-1040): > 10 µM

Reference: the supplement of paper PMC4967469
